The list shows a part of the results. The full chains were built here from the parent and the listed change. Inactive controls read about 0.05.
B1: TEV protease; numbered along this chain (parent)
chain: MGESLFKGPRDYNPISSSICHLTNESDGHTTSLYGIGFGPFIITNKHLFRRNNGTLVVQSLHGVFKVKDTTTLQQHLVDGRDMIIIRMPKDFPPFPQKLKFREPQREERICLVTTNFQTKSMSSMVSDTSCTFPSGDGIFWKHWIQTKDGQCGSPLVSTRDGFIVGIHSASNFTNTNNYFTSVPKNFMELLTNQEAQQWVSGWRLNADSVLWGGHKVFMVKPEEPFQPVKEATQL

Variants of: B1
Assay: raw area under fraction-flipped curve 0-4 h after induction (AUC4h, not background-subtracted), DNA-recorder readout of cleavage of the substrate (dimensionless); higher = more cleavage of the substrate by the protease variant
Settings: temperature: 34 °C; time window: 0-4 h after rhamnose induction
Protocol: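 In vivo DNA recorder in E. coli TOP10(DE3) ΔrhaA at 34 °C. Each TEVp single-site mutant (parent TEVp 0) is paired with a single-site variant of the 7-mer TEVs (canonical ENLYFQ|S). The substrate sits between flexible linkers in a Bxb1-sfGFP-TEVs-SsrA fusion, so cleavage stabilises Bxb1 and speeds flipping of a recombination array, read by NGS. The value is the raw area under the fraction-flipped curve over 0-4 h after rhamnose induction (AUC4h), with ≥20 reads per time point. It is not background-subtracted; inactive controls average about 0.047.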
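Also: Bxb1 expression induced with 0.2% (w/v) L-rhamnose at OD600 near 0.5, cultures sampled hourly, flipped fraction per protease–substrate barcode pair counted by paired-end Illumina sequencing.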

Variant | area with substrate ENLYFAS | area with substrate ENLYFCS | area with substrate ENLYFDS | area with substrate ENLYFES | area with substrate ENLYFFS | area with substrate ENLYFGS | area with substrate ENLYFHS | area with substrate ENLYFIS | area with substrate ENLYFKS | area with substrate ENLYFMS | area with substrate ENLYFNS | area with substrate ENLYFPS | area with substrate ENLYFRS | area with substrate ENLYFSS | area with substrate ENLYFTS | area with substrate ENLYFVS | area with substrate ENLYFYS | area with substrate ENLYFWS | area with substrate ENLYFLS
R81C | 0.0466 | 0.0693 | 0.0547 | 0.0522 | 0.0709 | 0.034 | 0.0564 | 0.0643 | 0.0643 | 0.059 | 0.065 | 0.0618 | 0.0571 | 0.0543 | 0.0521 | 0.0628 | 0.0581 |  | 
K90W | 0.0364 | 0.0623 | 0.0646 | 0.0718 | 0.0982 |  | 0.0639 | 0.0526 |  | 0.0509 | 0.065 | 0.0598 | 0.0609 | 0.0607 |  | 0.0515 | 0.0623 | 0.0543 | 
R102H | 0.0445 | 0.0501 |  | 0.0547 | 0.0481 | 0.0549 |  | 0.0472 | 0.0373 | 0.0548 | 0.059 | 0.0428 | 0.0551 | 0.0337 | 0.052 | 0.044 | 0.0429 | 0.0646 | 0.0652
L77I | 0.067 |  | 0.0723 | 0.0547 | 0.0453 | 0.0592 | 0.0568 | 0.0597 | 0.0556 | 0.0559 | 0.0638 | 0.0563 | 0.0562 | 0.0575 |  |  |  | 0.048 | 0.0686
L77H | 0.0578 | 0.0663 | 0.0459 | 0.0616 | 0.0655 | 0.0419 | 0.0462 | 0.0565 |  | 0.0595 | 0.059 | 0.0482 | 0.0611 | 0.0601 | 0.0506 |  | 0.057 |  | 
T70E | 0.0576 |  | 0.0413 | 0.0824 | 0.078 |  |  | 0.054 |  | 0.0501 | 0.0529 | 0.0614 |  | 0.047 | 0.0405 | 0.0441 | 0.0497 |  | 
G54V | 0.054 | 0.0607 | 0.0672 | 0.0552 | 0.0772 | 0.062 |  | 0.052 | 0.0552 | 0.0464 | 0.0586 | 0.0608 |  | 0.0597 | 0.0515 | 0.0595 |  | 0.0631 | 
D69E | 0.0566 | 0.0609 | 0.0571 | 0.073 | 0.0787 | 0.0736 |  | 0.0661 | 0.0608 | 0.0626 | 0.0687 | 0.0442 | 0.0481 | 0.0541 | 0.0575 | 0.0569 |  | 0.0588 | 0.0528
Q75R | 0.0457 | 0.0465 | 0.0548 | 0.0693 | 0.0597 |  |  | 0.0582 | 0.0287 | 0.0632 | 0.0338 | 0.0593 | 0.0761 |  | 0.0608 | 0.057 | 0.053 |  | 0.0714
Q75K | 0.0663 | 0.0743 |  | 0.061 | 0.0602 |  | 0.0593 | 0.0601 | 0.0641 | 0.054 | 0.0637 | 0.0591 | 0.0461 |  | 0.0591 | 0.0674 | 0.0621 |  | 
V113G | 0.0861 |  |  |  | 0.058 | 0.0574 |  | 0.0546 | 0.0613 |  | 0.0479 | 0.0547 |  |  |  |  | 0.0493 | 0.0506 | 
P93M | 0.0394 |  | 0.108 | 0.0547 | 0.12 | 0.0649 |  | 0.0272 | 0.0798 | 0.0726 | 0.0625 | 0.0578 | 0.0777 | 0.0838 | 0.0673 | 0.048 |  | 0.0569 | 0.0999
D82K | 0.0699 |  |  | 0.0503 | 0.0626 |  |  | 0.0618 | 0.06 | 0.0539 |  |  | 0.0589 |  | 0.0536 |  | 0.0559 | 0.0584 | 
D82N | 0.0585 | 0.0599 | 0.0678 | 0.0551 | 0.0746 |  |  | 0.0443 | 0.0557 | 0.0631 | 0.0633 |  | 0.0594 | 0.0606 | 0.109 |  |  |  | 0.0615
L61W | 0.0419 | 0.0554 | 0.0611 | 0.0623 | 0.0441 |  | 0.0631 | 0.0631 | 0.06 | 0.0581 | 0.0741 | 0.0581 | 0.0575 | 0.066 | 0.0553 | 0.0535 | 0.0603 | 0.0576 | 0.0752
K66L | 0.0389 | 0.0353 | 0.0653 | 0.0643 | 0.0747 |  | 0.0649 | 0.0599 | 0.0626 | 0.0684 | 0.0672 | 0.0604 |  | 0.0539 | 0.0567 |  |  |  | 0.0564
T71E | 0.0453 | 0.0605 | 0.0584 | 0.0547 |  |  | 0.0601 | 0.0543 |  | 0.0623 | 0.0414 | 0.0499 |  | 0.0721 | 0.103 | 0.0575 | 0.0576 | 0.072 | 0.0671
C111M | 0.0585 | 0.0531 |  | 0.0629 | 0.0676 |  |  | 0.0558 | 0.073 |  | 0.0612 | 0.0525 |  | 0.0814 |  |  |  | 0.0533 | 0.0449
P89N | 0.0494 |  | 0.0464 |  | 0.0741 |  | 0.068 | 0.0651 | 0.0642 | 0.063 | 0.0624 |  |  |  | 0.0488 | 0.0452 | 0.0348 | 0.052 | 
P89S | 0.0543 | 0.064 | 0.052 | 0.068 | 0.0727 |  | 0.0538 | 0.0573 |  | 0.0639 | 0.0694 | 0.0601 | 0.0683 | 0.0641 | 0.06 | 0.0339 | 0.054 | 0.0378 | 0.0553
L99D | 0.0472 | 0.0451 |  |  | 0.0711 | 0.0443 | 0.0578 | 0.0477 | 0.0608 | 0.0402 |  | 0.044 |  |  |  |  |  | 0.0594 | 
I86V | 0.0574 | 0.0562 | 0.0497 | 0.0615 | 0.0721 | 0.06 |  | 0.0537 | 0.0547 | 0.0722 | 0.0662 | 0.0602 | 0.0469 |  | 0.0646 | 0.0454 | 0.055 | 0.0603 | 
E108A | 0.0559 | 0.0468 |  | 0.0567 | 0.0624 |  | 0.0588 | 0.0545 | 0.0582 | 0.0569 |  | 0.0534 | 0.0466 |  | 0.0589 | 0.0557 | 0.0677 | 0.0535 | 0.0556
E107Y | 0.0587 | 0.0541 | 0.0561 | 0.0639 | 0.0542 | 0.0435 | 0.0671 | 0.0465 |  | 0.0644 |  |  |  | 0.061 | 0.0526 | 0.0546 |  | 0.0768 | 
S60H | 0.04 | 0.0572 | 0.0559 | 0.0875 | 0.0639 |  | 0.041 | 0.0583 | 0.0633 | 0.0668 | 0.0664 | 0.05 | 0.053 | 0.0596 | 0.0555 | 0.0633 |  | 0.0517 | 

Source: the supplement of paper PMC12217912
